Z-score data for 106 compounds are collected here from PubChem BioAssay AID488969 (Vanderbilt High Throughput Screening Facility, 2010).

Whole data set: some 110,000 compounds, median “z-score” near -0.1, cut for the highest 2% near 2. Some of the results follow.

This assay addresses Metabotropic glutamate receptor 8 (Rattus norvegicus) (UniProt P70579). Kind of assay: mGluR8 Gi/Go-coupled signaling modulation – cell-based, rat, thallium flux, HTS, primary screen (AID 488969). The conditions noted are these: HEK293 rat mGluR8, GIRK (G protein-gated inwardly rectifying potassium channel) thallium flux, FluoZin2; at 10 µM; stronger effect = higher value; submaximal glutamate (EC20) added with thallium.
Sequence of UniProt P70579 (P70579 whole entry, looked up): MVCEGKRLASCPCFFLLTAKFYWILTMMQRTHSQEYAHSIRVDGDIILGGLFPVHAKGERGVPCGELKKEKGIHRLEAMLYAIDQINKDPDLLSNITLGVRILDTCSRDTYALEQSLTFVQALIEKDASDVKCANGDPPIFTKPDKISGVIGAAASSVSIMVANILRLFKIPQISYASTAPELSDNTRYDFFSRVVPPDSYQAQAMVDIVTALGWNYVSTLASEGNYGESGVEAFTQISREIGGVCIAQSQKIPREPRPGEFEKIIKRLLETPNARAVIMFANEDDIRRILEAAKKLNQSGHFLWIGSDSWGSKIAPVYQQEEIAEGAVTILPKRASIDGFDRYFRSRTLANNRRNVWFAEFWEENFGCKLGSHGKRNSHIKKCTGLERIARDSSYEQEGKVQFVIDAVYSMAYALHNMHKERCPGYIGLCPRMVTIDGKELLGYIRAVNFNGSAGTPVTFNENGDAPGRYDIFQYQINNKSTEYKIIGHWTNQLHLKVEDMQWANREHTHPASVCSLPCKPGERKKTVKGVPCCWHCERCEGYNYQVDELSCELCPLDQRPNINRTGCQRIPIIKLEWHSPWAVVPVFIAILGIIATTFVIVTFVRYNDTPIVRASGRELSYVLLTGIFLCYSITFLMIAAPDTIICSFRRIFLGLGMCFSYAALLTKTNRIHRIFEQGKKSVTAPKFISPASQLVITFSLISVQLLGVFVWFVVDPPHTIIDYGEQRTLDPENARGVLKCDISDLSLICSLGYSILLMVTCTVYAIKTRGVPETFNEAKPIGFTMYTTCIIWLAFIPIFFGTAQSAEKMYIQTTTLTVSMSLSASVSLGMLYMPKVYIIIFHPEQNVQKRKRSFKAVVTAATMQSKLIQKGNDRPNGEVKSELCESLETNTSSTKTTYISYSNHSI
On to `O=c1c2ccccc2n2nnnc2n1-c1ccccc1`, for which the z-score was -0.0808. As to `CCOC(=O)C1CCN(C(=O)C2CCN(S(=O)(=O)c3cccc4cccnc34)CC2)CC1`, the z-score was -0.911. With `COc1ccc(-c2nnc(OCc3ccccc3)c3ccccc23)cc1` the figure was -0.227; with `O=C1CC(N2CCC(C(=O)N3CCCCC3)CC2)C(=O)N1` (stereo unspecified), 0.247; with `Fc1ccc(-c2csc3ncnc(Cl)c23)cc1`, 0.443. The result for `Cc1ccc(CC2C(=O)N(c3ncccn3)C(=O)C2C)cc1` (stereo unspecified) reads 1.03; that for `O=c1[nH]c(/C=C/c2ccccc2OC(F)F)nc2c1cnn2-c1ccccc1`, -0.274; that for `c1ccc(-c2csc(Nc3nc(N4CCOCC4)nc(N4CCOCC4)n3)n2)cc1`, 0.543. The result for `O=C(O)c1cccc(Oc2ccc([N+](=O)[O-])cc2)c1` reads 0.482. Turning to `O=C(CCc1ccc(S(=O)(=O)NCc2ccccc2)cc1)NCC1CCCO1` (stereo unspecified), the z-score is -0.199.

`O=C(NCCCN1CCN(CCCNC(=O)c2cccc(Cl)c2)CC1)c1cccc(Cl)c1` had a z-score of 0.118.

`CCCOc1ccccc1C1NC(=O)NC(C)=C1C(=O)OCCOC` (stereo unspecified) registered a z-score of -0.598. The compound `O=C(Nc1ccc(Cl)cn1)c1cccc(S(=O)(=O)N2CCOCC2)c1` had a z-score of -0.352.

On to `COC(=O)c1ccc(NC(c2ccc(Cl)cc2)P(=O)(OC)OC)cc1` (stereo unspecified), for which the z-score is -0.338. With `Cc1cc(C)c2c(n1)nn1c(NCCOCCO)cc(C)nc21`, the z-score was -0.491. The compound `CN(C(=O)c1ccccn1)C1(C(=O)NC2CCCCC2)CCCCC1` displayed a z-score of 0.116. As for `c1ccc2nc3c(nc2c1)c1ccccc1n3CCN1CCOCC1`, the z-score was -0.0524.

Take `COc1ccccc1CC(=O)Nc1ccc2nc(C)sc2c1`: the z-score was -0.41.

For the compound `COCCCn1c(SCc2nnc(-c3ccc(OC)c(OC)c3)o2)nc2ccccc2c1=O`, the z-score was -0.725. `CCCCc1c(C)c(C#N)c2nc3ccccc3n2c1Cl` returned a z-score of -0.226. In the case of `O=C(COC(=O)C1CCN(S(=O)(=O)c2ccc3c(c2)OCCO3)CC1)Nc1ccc(C(F)(F)F)cc1`, the z-score is -2.15. On to `CC1Cc2ccccc2N1C(=O)CSc1nnc(-c2ccc(S(=O)(=O)N3CCOCC3)cc2)n1C` (stereo unspecified), for which the z-score was -0.209. Regarding `Cc1occc1-c1nnc(SCC(=O)N(C)C)o1`, the z-score came to 0.103. With `O=C(/C=C/Nc1ccccc1OC(F)(F)F)C(F)(F)F` the figure was -0.635; with `C=CCN1C(=O)OC2(CCCCC2)C1(C)O` (stereo unspecified), -0.219; with `COc1cccc(N2CCN(Cc3nc4scc(-c5ccccc5)c4c(=O)[nH]3)CC2)c1`, -0.559. `CN(C(=O)c1cccc(N2C(=O)C3CC=CCC3C2=O)c1)C1CCCCC1` (stereo unspecified) had a z-score of -0.00466. For `COc1ccc(OCC(=O)Nc2cc(-c3nn(C)c(=O)c4ccccc34)ccc2OC)cc1`, the z-score was -1.24. For `O=C(NCC1CCCO1)c1cccc(N2CCCC2=O)c1` (stereo unspecified), the z-score was found to be 0.31. With `Cc1ccccc1OCCSc1nc(N(C)C)nc(N(C)C)n1` the figure was -0.000271; with `Cc1ccc(NC(=O)CN(c2ccc3c(c2)OCO3)S(=O)(=O)c2c(C)n[nH]c2C)cc1`, -0.0303.

On to `COc1cccc(CNc2ncc(Br)cc2Br)c1O`, for which the z-score was -0.468.

`O=C(CN1CCC(n2nnc3cc(F)ccc32)CC1)NNC(=O)c1ccccc1` registered a z-score of -0.146. Compound `Cc1sc(-c2ccncc2)nc1OC(=O)c1ccccc1` returned a z-score of -0.372. Regarding `CCOc1cc(C)cc2oc(=O)cc(-c3ccccc3)c12`, the z-score is 0.0205. With `Cc1ccc(S(=O)(=O)N2CCC(C(=O)OCc3ccc([N+](=O)[O-])cc3)CC2)cc1` the figure was -0.641; with `C=C(C)C1CC=C(C)/C(=N/NC(=O)COc2ccc(C)cc2)C1` (stereo unspecified), 1.47. As to `Cc1ccc(CNC(=O)COc2ccccc2-c2ccccc2)cc1`, the z-score is -0.0564. For the compound `O=C1Nc2ccccc2/C1=N\N=C\C1=C(N2CCOCC2)C(=C\c2ccccc2)/CC1`, the z-score was determined as 0.199.

Take `O=C(CCCN1C(=O)c2cccc3cccc(c23)C1=O)N1CCN(c2ccccc2)CC1`: the z-score is -0.201. In the case of `CC1=NC(Nc2nc(C)c3ccccc3n2)=NC(C)(C)C1`, the z-score was 0.113. The result for `Cc1ccc(S(=O)(=O)Oc2ccc(/C=N/NC(=O)c3nn(C)cc3[N+](=O)[O-])cc2)cc1` reads -0.351; that for `COc1ccc(NC(=S)Nc2ccccn2)c(OC)c1`, 0.235.

The compound `O=C(Nc1ccc(CN2CCOCC2)cc1)c1ccc(-c2ccc(Br)cc2)o1` returned a z-score of -0.0297. For `COC(=O)C1=CN(CC2CCCO2)C=C(C(=O)OC)C1c1ccccc1C(F)(F)F` (stereo unspecified), the z-score was found to be 0.236. `CN(C)C(=O)C(=O)c1cccn1-c1ccccc1C#N` returned a z-score of 0.429. `COCCNC(=S)NCCCNc1nc2cc3c(cc2cc1C#N)OCO3` displayed a z-score of -0.317.

In the case of `COC(=O)c1ccc(NC(=O)CCn2c(=O)oc3ccccc32)cc1`, the z-score was determined as 2.57.

As to `CCOC(=O)C1=C(C)NC(=O)NC1c1cc(Br)c(O)c(OC)c1` (stereo unspecified), the z-score was -0.262. With `CCOc1cc(/C=N/NC(=O)OC)ccc1OCCSc1ccc(Cl)cc1`, the z-score was 0.0465. For `CS(=O)(=O)c1ccc2c(c1)SC1=NC(=O)/C(=C/c3ccco3)C(=N)N12`, the z-score is -0.0252. On to `N#Cc1cnn(Cc2ccc(Cl)cc2)c1N`, for which the z-score stood at 0.669.

`CCOC(=O)CN(Cc1ccc(OC)c(OC)c1)S(=O)(=O)c1ccc(OC)cc1` came in with a z-score of 0.0846. Turning to `CC(=O)c1c(C)[nH]c(C(=O)N2CCc3ccccc32)c1C`, the z-score amounted to 0.662. In the case of `CCN(CC)c1nc(N2CCOCC2)c(C#N)c2c1CN(C)CC2`, the z-score is -0.189.

For the compound `CC1=NNC(=O)C1CCC(=O)N/N=C/C(Br)=C/c1ccccc1` (stereo unspecified), the z-score is -0.0952. `COc1cc(NC(=O)CSc2nc(C)cs2)cc(OC)c1` had a z-score of -0.213. Compound `O=C(COc1ccc(Cl)cc1)NNC(=O)C(=O)N1CCCCC1` registered a z-score of -0.105. Consider `CCOC(=O)C(NC(=O)c1cccc(Cl)c1)(Nc1sc2c(c1C(N)=O)CCC2)C(F)(F)F` (stereo unspecified), for which the z-score was -0.276.

As to `COc1ccccc1NC(=S)N(Cc1ccco1)Cc1cc2ccc(C)c(C)c2[nH]c1=O`, the z-score was -0.13. Turning to `CCOc1ccc(NC(=O)CN2C(=O)C3CCCN3C2=O)cc1` (stereo unspecified), the z-score turned out to be 0.237. The result for `CCCNC(=O)Cn1cnc2sc(C(=O)Nc3ccc4c(c3)OCO4)c(C)c2c1=O` reads -0.367; that for `CCOC(=O)C1CCCN(c2ccc(NC(=O)c3snc4c(=O)[nH]c(C)nc34)cc2)C1` (stereo unspecified), 0.0878; that for `O=C(CC12CC3CC(CC(C3)C1)C2)N1CCCOC1`, -0.19. `COc1ccc(C(=O)CSc2nnc(Cn3nnc4ccccc43)n2C)cc1` came in with a z-score of -0.0199. The result for `O=S(=O)(NCc1cccnc1)c1ccc(Cl)nc1` reads 1.05; that for `O=C(CCn1c(=O)c2ccccc2n(Cc2ccccc2)c1=O)NCc1ccc2c(c1)OCO2`, -0.0589; that for `Cc1cc(C(=O)N/N=C/c2cc([N+](=O)[O-])ccc2O)c2ccccc2n1`, -0.102.

In turn, `O=C(CSc1nc2cc(Cl)ccc2c(=O)n1Cc1ccco1)Nc1ccc(S(=O)(=O)N2CCOCC2)cc1` displayed a z-score of 2.05.

In turn, `N#CCCN(Cc1ccccc1)C(=S)Nc1ccccc1` showed a z-score of -0.262. With `CCOC(=O)C(C)n1nc(C)c2sc3ccccc3c2c1=O` (stereo unspecified) the figure was -0.322.

`O=C(Nc1ccc(Cc2ccncc2)cc1)c1cccc([N+](=O)[O-])c1` registered a z-score of -0.303. The compound `N#Cc1ccccc1Sc1ccccc1C(=O)OCC(=O)NC12CC3CC(CC(C3)C1)C2` came in with a z-score of -0.129. With `COc1ccc(NC(=S)N2CCN(c3ccccn3)CC2)cc1OC`, the z-score is 1.41.

Consider `OC(CNCC1CCCO1)COc1ccc(OCC(O)CNCC2CCCO2)cc1` (stereo unspecified), for which the z-score was -0.457. `CC(=O)Nc1ccc(OC(F)(F)C(F)F)c(NC(C)=O)c1` yielded a z-score of 0.435. Turning to `COc1ccc(C(=S)N2CCOCC2)cc1OC(=O)c1cc([N+](=O)[O-])c(C)c([N+](=O)[O-])c1`, the z-score was 0.476.

On to `CC1CCCCN1Cc1ccc(-c2nnn(CC(=O)NC3CCCCC3)n2)cc1` (stereo unspecified), for which the z-score came to 0.57.

In the case of `CCOC(=O)c1cccc(NC(=O)CSc2nnc(-c3ccoc3C)n2CCOC)c1`, the z-score is -2.88. Compound `O=C(NC(=S)NNC(=O)c1ccccc1[N+](=O)[O-])c1ccccc1` registered a z-score of -0.00864. In the case of `Cc1cc2ccccn2c1C(=S)NC(=O)c1ccccc1`, the z-score is -0.81. Compound `CN1C(=O)c2ccccc2C(C(=O)NCc2ccco2)C1c1c[nH]c2ccccc12` (stereo unspecified) showed a z-score of -1. `CCc1c(C)nc2ncnn2c1N1CCC(C(=O)NCc2ccc3c(c2)OCO3)CC1`: the z-score is -0.715. The result for `COc1ccccc1/C=C(\NC(=O)c1ccc(OC)c(OC)c1)C(=O)Nc1ccc([N+](=O)[O-])cc1` reads 0.43; that for `O=C(CSc1nnc(CNc2ccc(F)cc2)o1)N1CCN(C(=O)c2ccco2)CC1`, 0.487; that for `Cc1cc(C)nc(SCC(=O)Nc2ccc(S(=O)(=O)NCCO)cc2)n1`, -0.145. `COc1ccc(-n2c(-c3ccc(F)cc3)cnc2SCC(=O)NCc2ccco2)cc1` returned a z-score of -0.275.

Turning to `CCn1c(CNc2ccc(Cl)cc2)nnc1SCC(=O)NCc1ccccc1`, the z-score was -0.546. The result for `CC1(C)CC(=O)C2=C(C1)OC(N)=C(C#N)C21C(=O)N2CCCc3cccc1c32` (stereo unspecified) reads -0.0681. `COc1ccccc1NC(=O)c1cnc(Nc2ccccc2OC)c2ccccc12` came in with a z-score of -0.375. As to `CCC(C)NCCCCOc1ccc(Br)cc1` (stereo unspecified), the z-score worked out at 0.51.

`COc1ccc(OCC(=O)Nc2ccc(S(=O)(=O)Nc3cc(C)nc(C)n3)cc2)cc1` returned a z-score of 0.312.

In turn, `CN(C)c1cc2c(c(N(C)C)c1)C(=O)c1ccccc1C2=O` showed a z-score of 0.0524.

`CCc1nc(SCC(=O)NNC(=O)C(C)C)c2ccccc2n1` yielded a z-score of -0.00759. Turning to `COc1ccc(OCC(=O)NNC(=O)c2nn(C)c(=O)c3ccccc23)cc1`, the z-score was -0.547.

Compound `O=C(c1ccco1)c1cc2c(ccc3ccccc32)oc1=O` displayed a z-score of -0.33. Compound `CN=C(Nc1cc(Cl)ccc1Cl)SC1CC(=O)N(c2ccc(C(=O)OC)cc2)C1=O` (stereo unspecified) gave a z-score of -0.472.

The compound `CN(C(=O)c1ccc(S(=O)(=O)NC2CCCC2)cc1)C1CCCCC1` showed a z-score of -0.345. The compound `O=C(CSc1nnnn1-c1cccc2ccccc12)N1CCOCC1` registered a z-score of -0.416. For the compound `COCCn1c(=O)[nH]c2cc(C(=O)NCCN3CCN(c4ccccc4F)CC3)ccc2c1=O`, the z-score was -0.59. Consider `Cn1c(CN2CCCC2)nc2cc(NC(=O)COc3ccc(Cl)cc3)ccc21`, for which the z-score is 0.175. With `Cc1ccc(C(=O)n2nc(-c3cccnc3)nc2N)cc1` the figure was 0.108; with `Cc1cc(NCCN2CCOCC2)n2ncc(-c3ccccc3)c2n1`, -0.397. In turn, `Cc1sc2ncnc(SCC(=O)NCC(C)C)c2c1C` came in with a z-score of -0.208. Compound `CCc1nnc(N/N=C/c2ccc(N3CCC(C)CC3)c([N+](=O)[O-])c2)n1N` showed a z-score of -0.0832. Turning to `CCn1cc(C(=O)NCCCN2CCC(C)CC2)c2cc(OC)c(OC)cc2c1=O`, the z-score is -0.227.
